Data taken from PubChem BioAssay AID485344 (National Center for Advancing Translational Sciences (NCATS), 2010).
About 6,900 (2%) of roughly 340,000 compounds were called active. Rule as the data show it: active = inhibition above about 30%; inactive = below that, where a call was filed. The entries are a selection whose mix differs from that of the whole data set. Entries without a call were filed so in the source.
Also: 0% is about no effect.

The compounds below were run against D(2) dopamine receptor (Homo sapiens) (UniProt P14416) (assay: HTS Assay for Allosteric Antagonists of the Human D2 Dopamine Receptor: Primary Screen for Antagonists). Settings: HEK293 TREx D2 cells, calcium flux, dopamine EC80; at 10 µM; stronger effect = higher value.
Sequence of UniProt P14416 (P14416 whole entry, looked up): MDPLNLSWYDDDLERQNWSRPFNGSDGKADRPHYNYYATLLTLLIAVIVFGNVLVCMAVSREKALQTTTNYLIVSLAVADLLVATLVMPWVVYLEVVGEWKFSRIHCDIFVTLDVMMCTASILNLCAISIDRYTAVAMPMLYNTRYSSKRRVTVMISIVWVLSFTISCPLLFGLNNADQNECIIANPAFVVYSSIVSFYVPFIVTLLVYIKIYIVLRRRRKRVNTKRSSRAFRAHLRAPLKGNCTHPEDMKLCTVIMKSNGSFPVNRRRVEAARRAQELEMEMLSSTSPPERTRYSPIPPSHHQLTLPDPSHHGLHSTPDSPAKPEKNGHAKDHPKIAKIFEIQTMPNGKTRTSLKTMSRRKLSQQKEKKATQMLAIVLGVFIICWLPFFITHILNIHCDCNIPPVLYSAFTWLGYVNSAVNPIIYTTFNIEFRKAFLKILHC
In short: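 HEK293 T-REx D2 cells, tet-induced, calcium dye no-wash. Cpd pintool add, 180 s kinetic, then EC80 DA, 180 s kinetic. Ca flux read.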
In the case of `CC1CCN(S(=O)(=O)c2ccc3c(c2)N(CC(=O)NC(C)(C)C)C(=O)CS3)CC1`, the inhibition is reported as 17%. `COc1cccc(CNC(=O)Cn2c(=O)nc(-c3ccccc3F)c3cc(Cl)ccc32)c1` showed an inhibition of 7.85%. `COc1cc2c(cc1OC)C(COc1ccccc1OC)N(C(=O)c1ccc(S(=O)(=O)N(C)C)cc1)CC2` (configuration not stated) was tested, and the inhibition was 3.26%. In the case of `O=C(CCc1nc2ccccc2c(=O)[nH]1)Nc1ccc(N2CCCCC2)cc1`, the inhibition is reported as active: 76.7%. Work on `Cc1ccc(Cl)cc1N1CCN(C(=O)COc2cc(=O)n(C)c3ccccc23)CC1` yielded an inhibition of -17.4%. With `CC(C)Cn1c(CCCNC(=O)c2ccc(F)cc2)nc2ccccc21` the inhibition was active: 30.9%. `COc1ccc(Nc2nc3c(S(=O)(=O)c4ccc(C)cc4)nnn3c3ccsc23)cc1Cl` showed an inhibition of -5.13%. Compound `Cc1ccc(/C=C/c2onc(C)c2S(=O)(=O)N2CCC(C(=O)N3CCN(c4cc(C)ccc4C)CC3)CC2)cc1` has an inhibition of -0.932%. In the case of `CC(=O)N1CCc2c(sc3c2c(=O)n(Cc2ccccc2)c(=O)n3Cc2ccccc2Cl)C1`, the inhibition is reported as -23.8%. In the case of `COC(=O)c1ccc([N+](=O)[O-])cc1N1C(=O)C2C3CCC(C3)C2C1=O` (configuration not stated), the inhibition is reported as active: 52.7%. For `CCOc1ccc(C(=O)NCC(c2ccc3c(c2)OCO3)N2CCN(C)CC2)cc1` (configuration not stated), the inhibition was 2.84%. `CCOc1ccc2nc(Cl)c(C3CC(c4ccccc4)=NN3C(=O)CCC(=O)O)cc2c1` (configuration not stated) gave an inhibition of -5.86%. In the case of `CC(=O)Nc1ccc(S(=O)(=O)N2CCN(CC(=O)N3CCOCC3)CC2)cc1`, the inhibition is reported as active: 37.4%. In the case of `Cc1ccc(-c2nnc(Nc3ccc(O)cc3)c3ccccc23)cc1S(=O)(=O)NC(C)(C)CO`, the inhibition is reported as -16.7%. `CCOc1ccc(S(=O)(=O)N(CC(=O)Nc2ccc(OC)c(Cl)c2)c2ccccc2)cc1` showed an inhibition of -16.9%. Compound `Cc1nn2c(C)c(C(=O)NCc3cccc(Br)c3)cnc2c1-c1ccccc1` has an inhibition of 9.89%. `COc1ccc(Cl)cc1NC(=O)c1noc2c1CCc1ccccc1-2` gave an inhibition of 17%. `COc1ccc(Nc2cc(C)c3cc(NC(=O)COc4cccc(C)c4)ccc3n2)cc1` gave an inhibition of -12.7%. For `COc1ccc2nc(NC(=O)c3nc(S(=O)(=O)Cc4ccc(C)cc4)ncc3Cl)sc2c1`, the inhibition was -13.9%. With `Cc1cccc(N2CCN(C(=O)CCNS(=O)(=O)c3ccc4c(c3)CCN4C(=O)C3CC3)CC2)c1C` the inhibition was 4.19%. Compound `COc1cccc(CNC(=O)C2=C(C)C(=O)OC23CCCCCC3)c1` has an inhibition of 0.739%. Compound `CCOc1ccccc1NC(=O)CN(c1cc(C)cc(C)c1)S(=O)(=O)c1c(C)nn(C)c1C` has an inhibition of 4.4%. `Cc1cc(C)c(Cn2cnc3nc4c(cc3c2=O)CCCC4)c(C)c1` showed an inhibition of -19.7%. `CCOc1cc(C(=O)Nc2ccc3nc(N4CCN(C)CC4)cc(C)c3c2)cc(OCC)c1OCC` showed an inhibition of 2.35%. Compound `CCc1cccc(NC(=O)CN(C)S(=O)(=O)c2ccc3c(c2)n(C)c(=O)c(=O)n3C)c1` has an inhibition of 2.42%. `COc1ccc(-c2noc(COc3ccc(C)cc3C)n2)cc1OC` was tested, and the inhibition was 14.2%. For `Cc1ccc2oc(=O)cc(CN3CCN(Cc4ccccc4)CC3)c2c1`, the inhibition was active: 51.9%. For `COc1ccc(S(=O)(=O)N(CC(=O)Nc2ccc(C)cc2)c2ccc(C)cc2)cc1OC`, the inhibition was -2.85%. `COc1cccc(-c2noc(C3CCCN(C(=O)c4ccc(F)cc4F)C3)n2)c1` (configuration not stated) was tested, and the inhibition was active: 32.7%. Compound `CCOC(=O)c1scc(-c2ccc(C)cc2)c1S(=O)(=O)N1CCN(c2ccccc2)CC1` has an inhibition of -4.51%. With `Cn1c(C(=O)NCc2ccccc2F)cc2cc(S(=O)(=O)N3CCCCC3)ccc21` the inhibition was -18.9%. In the case of `Cc1ccc(S(=O)(=O)N(C)c2ccc(C(=O)Nc3cccnc3)cc2)cc1`, the inhibition is reported as active: 35%. `COC(=O)c1sc2cccc(F)c2c1S(=O)(=O)NCc1ccccc1Cl` showed an inhibition of 1.08%. In the case of `COc1ccc(NC(=O)CN(C)S(=O)(=O)c2ccc3nc(C)sc3c2)cc1Cl`, the inhibition is reported as -0.785%. `CCCOc1ccc(C(=O)Nc2ccc(NC(=O)c3ccc(Br)cc3)cc2)cc1` gave an inhibition of 12.7%. In the case of `Cc1cccc(Nc2nnc(-c3ccc(C)c(S(=O)(=O)N4CCOCC4)c3)c3ccccc23)c1`, the inhibition is reported as 8.47%. `COc1ccc(CCNCc2c(C(=O)O)c(C)n(Cc3cccc(C)c3)c2C)cc1OC` gave an inhibition of -4.35%. In the case of `Cn1c(Oc2cccc(Cl)c2)nc2c1c(=O)n(Cc1ccccc1Cl)c(=O)n2C`, the inhibition is reported as -1.09%. Work on `Cc1ccc(NS(=O)(=O)c2ccc3[nH]c4c(c3c2)CCCCCC4)cc1C` yielded an inhibition of 10.6%. For `COc1ccc(C)c(NC(=O)NCCc2cnc[nH]2)c1`, the inhibition was active: 37.7%. `CCOc1ccccc1CNC(=O)CCCn1c(=O)c2cccn2c2ccc(F)cc21` gave an inhibition of -13.5%. `CCOc1ccc(S(=O)(=O)Nc2ccc3c(c2)CCCN3S(=O)(=O)c2ccc(C)cc2)cc1` was tested, and the inhibition was -1.18%. In the case of `Cc1ccc(-n2nnnc2CN2CCCCC2)cc1`, the inhibition is reported as active: 37.8%. `CCOC(=O)c1cc(S(=O)(=O)N(C)c2ccccc2)[nH]n1` was tested, and the inhibition was 22.6%. In the case of `Cc1ccc(S(=O)(=O)N(Cc2cccnc2)Cc2cc3ccccc3[nH]c2=O)cc1`, the inhibition is reported as active: 93.9%. Work on `Cc1ccc(CNC(=O)c2cc(NS(=O)(=O)c3ccc(C)cc3)ccn2)cc1` yielded an inhibition of -10.7%. Work on `O=C(NCC(c1ccco1)S(=O)(=O)c1cccs1)c1c(F)cccc1F` (configuration not stated) yielded an inhibition of 14%. Compound `CCN(CC)C(=O)c1sc2c(c1C)c(=O)n(Cc1ccccc1)c(=O)n2Cc1c(C)cc(C)cc1C` has an inhibition of -15.2%. `CC(C)c1nc(SCC(=O)Nc2ccc(N(C)C)cc2)c2ccccc2n1` was tested, and the inhibition was active: 33.9%. With `OC(COc1ccc2c(c1)CCC2)CN1CCN(c2cccc(Cl)c2)CC1` (configuration not stated) the inhibition was active: 39.2%. For `Cc1cccc(NC(=O)Cn2c(=O)n(CC3CCC(C(=O)NCCc4ccccc4)CC3)c(=O)c3ccccc32)c1C` (configuration not stated), the inhibition was 1.72%. `Cc1ccc2[nH]c(C)c(CCNC(=O)c3cc4cc(Br)ccc4oc3=O)c2c1` showed an inhibition of -2.43%. `Cc1nn(-c2ccc(N3CCCC3)nn2)c(C)c1CCC(=O)N1CCN(c2ccc(F)cc2)CC1` was tested, and the inhibition was 2.64%. With `CCCN(C(=O)c1c(-c2ccccc2)noc1C)c1c(N)n(Cc2ccccc2)c(=O)[nH]c1=O` the inhibition was active: 65.5%. For `O=C(NCC(c1cccnc1)N1CCc2ccccc21)c1cccc(F)c1` (configuration not stated), the inhibition was -4.2%. `CCOC(=O)c1ccc(NC(=O)c2c(NCc3ccc(OC)c(OC)c3OC)sc3c2CCC(C)C3)cc1` (configuration not stated) gave an inhibition of -19.8%. `COc1ccc(OCC(=O)N2CCN(C(=O)c3cccc(OC)c3OC)CC2)cc1` was tested, and the inhibition was -16%. `CCCCN(C(=O)CCn1c(=O)oc2ccccc21)c1ccccc1` gave an inhibition of -1.01%. With `CCOc1ccc(-c2cc(CCCC(=O)NCCc3ccc(SC)cc3)no2)cc1` the inhibition was 8.85%. `COCCn1c(C)cc(O)c(C(c2ccccc2Cl)N2CCN(c3ccccc3)CC2)c1=O` (configuration not stated) was tested, and the inhibition was 0.948%. Work on `COC(=O)c1ccc(NC(=O)CN(C)S(=O)(=O)c2ccc3c(c2)CCCC(=O)N3)cc1` yielded an inhibition of -2.41%. `COc1ccc(Cl)cc1NC(=O)COc1cccc2c(=O)n(C)ccc12` gave an inhibition of 16.2%. `CCCCNC(=O)Cn1nc(N2CCN(c3ccccc3OC)CC2)ccc1=O` showed an inhibition of -4.34%. `CC(C)N(C(=O)CN1C(=O)C(=O)c2ccccc21)c1ccccc1` was tested, and the inhibition was active: 36.2%. `CCn1cc(S(=O)(=O)c2cc(C)cc(C)c2)c(=O)c2cc(F)c(N3CCN(c4ccccc4)CC3)cc21` gave an inhibition of 0.548%. Work on `COc1cccc(C(=O)N2CCc3cc(OC)c(OC)cc3C2COc2ccc3c(C)cc(=O)oc3c2)c1` (configuration not stated) yielded an inhibition of -14.4%. In the case of `O=S(=O)(c1cccc(NC(=S)Nc2ccc(Br)cc2Cl)c1)N1CCOCC1`, the inhibition is reported as active: 37.8%. Compound `CCOc1ccc(C(c2c(O)cc(C)n(CCOC)c2=O)N2CCN(c3ccc(F)cc3)CC2)cc1` (configuration not stated) has an inhibition of 4.77%. Work on `Cc1sc2ncn(CC(=O)N3CCN(c4cccc(Cl)c4)CC3)c(=O)c2c1S(=O)(=O)N1CCC(C)CC1` yielded an inhibition of -13.4%. `Cc1cccc2cc(-c3nc(-c4cccs4)no3)c(=O)oc12` was tested, and the inhibition was 6.7%. With `CCN(CC)C(=O)Cn1c(=O)n(CCCCCC(=O)NCc2ccc(C)cc2)c(=O)c2sccc21` the inhibition was -2.34%. With `CC(=O)N1CCc2c(sc3c2c(=O)n(-c2cc(Cl)ccc2C)c(=O)n3C)C1` the inhibition was 6.9%. With `CCOc1ccc(-n2c(=O)c3c(C)c(C)sc3n(Cc3ccc(C(C)(C)C)cc3)c2=O)cc1` the inhibition was 7.52%. In the case of `Fc1ccc(NCc2ccccc2-c2nnc(-c3ccccc3Cl)o2)cc1Cl`, the inhibition is reported as 9.32%. `CCc1ccc(-c2cc(C)no2)cc1S(=O)(=O)NCc1ccc(OC)cc1` gave an inhibition of -6.4%. For `CCCn1nnnc1NCc1ccc(SC)cc1`, the inhibition was active: 36.9%. Work on `N#C/C(=C/c1ccccc1Cl)c1nc(-c2cc3ccccc3oc2=O)cs1` yielded an inhibition of -6.82%. With `O=C(Cn1c(=O)n(CC2CCCO2)c(=O)c2ccccc21)Nc1ccc(F)cc1F` (configuration not stated) the inhibition was -25.3%. `COC(=O)c1cc(NC(=O)Cn2nc(-c3ccccc3)c3c(c2=O)CCCC3)cc(C(=O)OC)c1` gave an inhibition of -2.2%. `COC(=O)c1cc2sc(C)cc2n1Cc1nc(-c2cccc(Br)c2)oc1C` showed an inhibition of 3.67%. `CCOC(=O)C1CCN(c2csc3ccc(C)cc3c2=O)CC1` was tested, and the inhibition was -10.7%. With `CC(C)(C)OC(=O)N1CCC(c2c(C(=O)N3CCN(c4ccccc4F)CC3)cnn2C(C)(C)C)CC1` the inhibition was -0.902%. With `CCc1nnc(SC(CC)C(=O)NCCOC)c2cc3occc3n12` (configuration not stated) the inhibition was -3.47%. In the case of `CN1CCN(C(=O)c2cnn(-c3ccccc3)c2C2CCN(C(=O)OC(C)(C)C)CC2)CC1`, the inhibition is reported as 2.77%. For `CCOc1ccccc1N(C)C(=O)c1cc(S(=O)(=O)NCc2ccc(C)cc2)ccc1F`, the inhibition was 15.3%. With `CCc1cccc(NC(=O)Cn2c(=O)n(Cc3ccccc3)c(=O)c3c(C)c(C(=O)N(C)C)sc32)c1` the inhibition was -1.24%. `Cc1cccc(NC(=O)CSc2nc(C)cc(C)c2C(=O)Nc2ccc(Cl)cc2)c1` was tested, and the inhibition was 20.5%. `Cc1ccc(C)c(NC(=O)Cn2cc(S(=O)(=O)N3CCCC3)c(S(=O)(=O)N3CCCC3)c2)c1` showed an inhibition of 0.373%. Work on `COc1ccc(Cl)cc1NC(=O)c1cc(=O)c2cc(C)cc(C)c2o1` yielded an inhibition of 0.0849%. `CCc1nn2c(=O)cc(COC(=O)c3cccc(NC(=O)COc4ccccc4F)c3)nc2s1` showed an inhibition of -2.31%. Compound `COc1cc(NC(=O)CN(C)S(=O)(=O)c2ccc3c(c2)CCCC(=O)N3)cc(OC)c1OC` has an inhibition of 14.4%. In the case of `CCC(=O)C1=C(c2cccc([N+](=O)[O-])c2)N(C(=O)CC)n2c(nnc2C2CCCCC2)S1`, the inhibition is reported as -20.8%.
